{
  "source": "paper PMC5587286",
  "about": "“Direct versus indirect actions of ghrelin on hypothalamic NPY neurons” (PLoS ONE, 2017)",
  "test_system": "isolated NPY-GFP neurons from the VMH",
  "note": "pEC50: −log10 of the molar value. Where two headings read alike, the source gives them in different places.",
  "data": [
    {"compound": "Oc1cc2ccccc2c2ccccc12", "note": "[9-phenanthrol]", "values": [
      {"measurement": "effect on the action of ghrelin", "result": "completely and reversibly block"}
    ]},
    {"compound": "NC(=O)c1ncn([C@@H]2O[C@H](CO)[C@@H](O)[C@H]2O)c1N", "note": "[AICAR, aminoimidazole carboxamide ribonucleotide]", "values": [
      {"measurement": "effect on [Ca2+]c when applied alone", "result": "produced the same effect on NPY-GFP neurons as 100 pM ghrelin"}
    ]},
    {"compound": "N#Cc1cc2[nH]c(=O)c(=O)[nH]c2cc1[N+](=O)[O-]", "note": "[CNQX]", "values": [
      {"measurement": "effect on ghrelin action ([Ca2+]c increase)", "result": "no significant effect"}
    ]},
    {"compound": "C=C[C@@]1(C)CC(=O)[C@]2(O)[C@@]3(C)[C@@H](O)CCC(C)(C)[C@@H]3[C@H](O)[C@H](OC(C)=O)[C@@]2(C)O1", "note": "[FSK, forskolin]", "values": [
      {"measurement": "effect on [Ca2+]c when applied alone", "setting": "FSK 10 μM, compared with ghrelin 100 pM", "result": "mimicked the action of ghrelin"}
    ]},
    {"compound": "NCCCC(=O)O", "note": "[GABA, Gamma aminobutyric acid]", "values": [
      {"measurement": "effect on ghrelin activation", "setting": "GABA 5 pM to 1 μM, ghrelin 100 pM, mean of 12 neurons", "result": "suppresses ghrelin activation in a dose-dependent fashion"}
    ]},
    {"compound": "O=S(=O)(NCCNC/C=C/c1ccc(Br)cc1)c1cccc2cnccc12", "note": "[H-89]", "values": [
      {"measurement": "inhibition of ghrelin action", "setting": "H-89 5 μM, ghrelin 100 pM, data not shown", "result": "~ 40%"},
      {"measurement": "inhibition of the stimulatory effect of ghrelin", "setting": "H-89 10 μM, ghrelin 100 pM", "result": "> 50", "unit": "%"}
    ]},
    {"compound": "[Ni+2]", "note": "[Ni^2+]", "values": [
      {"measurement": "effect on ghrelin action", "result": "markedly suppress ghrelin action"}
    ]},
    {"compound": "Nc1ncnc2c1ncn2[C@@H]1O[C@@H]2COP(O)(=S)O[C@H]2[C@H]1O", "note": "(stereo partly drawn) [Rp-cAMP]", "values": [
      {"measurement": "inhibition of ghrelin action", "setting": "Rp-cAMP 20 μM, ghrelin 100 pM, data not shown", "result": "~ 40%"}
    ]},
    {"compound": "O=C(O)c1ccc2c3c1cccc3c(=O)n1c3ccccc3nc21", "note": "[STO-609]", "values": [
      {"measurement": "effect on ghrelin activation", "setting": "STO-609 1 μM, ghrelin 100 pM", "result": "partially blocks ghrelin activation"}
    ]},
    {"compound": "CC1(C)C[C@@H](CN2CCC(F)(CNC(=O)c3cc(Cl)cc(Cl)c3)CC2)CCO1", "note": "[TTA-P2]", "values": [
      {"measurement": "effect on ghrelin action", "setting": "TTA-P2 1 μM, ghrelin 100 pM", "result": "partially inhibited ghrelin action"}
    ]},
    {"compound": "NC1=N[C@H](O)[C@H]2[C@H]3O[C@]4(O)O[C@@H]([C@@H](O)[C@@]2(N1)[C@@H]4O)[C@]3(O)CO", "note": "[TTX, tetrodotoxin]", "values": [
      {"measurement": "effect on the action of ghrelin", "result": "has no effect"}
    ]},
    {"compound": "C/C=C(/C)C(=O)O[C@H]1C(C)=C2[C@H]([C@@H]1OC(=O)CCCCCCC)[C@@](C)(OC(C)=O)C[C@H](OC(=O)CCC)[C@@]1(O)[C@H]2OC(=O)[C@@]1(C)O", "note": "[Thapsigargin, thapsigargin]", "values": [
      {"measurement": "effect on ghrelin action ([Ca2+]c increase)", "result": "did not block ghrelin action"},
      {"measurement": "effect on basal [Ca2+]c", "setting": "thapsigargin 0.5 μM", "result": "elevated basal [Ca^2+]c somewhat"}
    ]},
    {"compound": "COc1ccc2c(c1)CC[C@@H]1[C@@H]2CC[C@]2(C)[C@@H](NCCCCCCN3C(=O)C=CC3=O)CC[C@@H]12", "note": "[U73122]", "values": [
      {"measurement": "reduction of subsequent ghrelin activation", "setting": "U73122 1 μM, 15 minute preincubation, ghrelin 100 pM", "result": "> 50", "unit": "%"}
    ]},
    {"compound": "c1cc(-c2cnn3cc(-c4ccc(OCCN5CCCCC5)cc4)cnc23)ccn1", "note": "[compound C]", "values": [
      {"measurement": "effect on NPY-GFP neuron activation by ghrelin and FSK", "setting": "Compound C 30 μM, data not shown", "result": "markedly inhibited"},
      {"measurement": "effect on oligomycin-induced [Ca2+]c increase", "setting": "compound C 30 μM, oligomycin 50 nM", "result": "completely blocked"}
    ]},
    {"compound": "CC1=NS(=O)(=O)c2cc(Cl)ccc2N1", "note": "[diazoxide]", "values": [
      {"measurement": "effect on [Ca2+]c when applied alone", "setting": "diazoxide 200 μM", "result": "reversibly activated the [Ca^2+]c response in all NPY-GFP neurons"},
      {"measurement": "effect on neurons activated by compound A or by ghrelin", "setting": "diazoxide 200 μM", "result": "no inhibitory effect"}
    ]},
    {"compound": "O=C(O)c1ccccc1Nc1cccc(C(F)(F)F)c1", "note": "[flufenamic acid]", "values": [
      {"measurement": "effect on the action of ghrelin", "setting": "flufenamic acid 100 μM, ghrelin 200 pM", "result": "completely and reversibly block"}
    ]},
    {"compound": "CCCCCCCC(=O)OC[C@H](NC(=O)[C@H](CO)NC(=O)CN)C(=O)N[C@@H](Cc1ccccc1)C(=O)N[C@@H](CC(C)C)C(=O)N[C@@H](CO)C(=O)N1CCC[C@H]1C(=O)N[C@@H](CCC(=O)O)C(=O)N[C@@H](Cc1c[nH]cn1)C(=O)N[C@@H](CCC(N)=O)C(=O)N[C@@H](CCCNC(=N)N)C(=O)N[C@H](C(=O)N[C@@H](CCC(N)=O)C(=O)N[C@@H](CCC(N)=O)C(=O)N[C@@H](CCCNC(=N)N)C(=O)N[C@@H](CCCCN)C(=O)N[C@@H](CCC(=O)O)C(=O)N[C@@H](CO)C(=O)N[C@@H](CCCCN)C(=O)N[C@@H](CCCCN)C(=O)N1CCC[C@H]1C(=O)N1CCC[C@H]1C(=O)N[C@@H](C)C(=O)N[C@@H](CCCCN)C(=O)N[C@@H](CC(C)C)C(=O)N[C@@H](CCC(N)=O)C(=O)N1CCC[C@H]1C(=O)N[C@@H](CCCNC(=N)N)C(=O)O)C(C)C", "note": "[ghrelin]", "values": [
      {"measurement": "NPY-GFP neurons activated (elevated [Ca2+]c)", "result": "16 of 16"},
      {"measurement": "[Ca2+]c response to continuous application", "result": "sustained, but reversible [Ca^2+]c increase without apparent desensitization"},
      {"measurement": "pEC50", "setting": "10 h", "result": "~9.96"}
    ]},
    {"compound": "COc1ccc(Cl)cc1C(=O)NCCc1ccc(S(=O)(=O)NC(=O)NC2CCCCC2)cc1", "note": "[glibenclamide]", "values": [
      {"measurement": "effect on the action of ghrelin", "setting": "glibenclamide 1 μM, ghrelin 200 pM", "result": "reversibly inhibited the action of ghrelin"}
    ]},
    {"compound": "COCC(=O)O[C@]1(CCN(C)CCCc2nc3ccccc3[nH]2)CCc2cc(F)ccc2[C@@H]1C(C)C", "note": "[mibefradil]", "values": [
      {"measurement": "effect on ghrelin action", "setting": "mibefradil 5 μM, ghrelin 100 pM", "result": "markedly suppress ghrelin action"}
    ]},
    {"compound": "CC[C@H]1/C=C/C=C/C[C@@H](C)[C@H](O)[C@@](C)(O)C(=O)[C@@H](C)[C@H](O)[C@@H](C)C(=O)[C@@H](C)[C@H](O)[C@@H](C)/C=C/C(=O)O[C@@H]2[C@H](C)[C@H](CC1)O[C@]1(CC[C@H](C)[C@H](C[C@@H](C)O)O1)[C@H]2C", "note": "[oligomycin]", "values": [
      {"measurement": "effect on [Ca2+]c when applied alone", "setting": "oligomycin 50 nM", "result": "increased [Ca^2+]c"}
    ]},
    {"compound": "[D-lys3]-GHRP-6", "values": [
      {"measurement": "effect on ghrelin action ([Ca2+]c increase)", "result": "blocked reversibly"}
    ]}
  ]
}
